Measurements as given in paper PMC4336329 (PLoS ONE, 2015).
Out of some 310,000 compounds screened, about 14,000 (4.5%) showed an effect of 50% or more. Effects have a minus sign here. The list shows a part of the results.

molecular target: human ether-à-go-go-related gene (hERG) potassium channel (human, UniProt Q12809); test: primary screen, population patch clamp on CHO cells stably expressing hERG
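Note: peak tail current of the secondary pulse compared with the same well before compound.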

Sequence of human ether-à-go-go-related gene (hERG) potassium channel (Q12809 whole entry, looked up): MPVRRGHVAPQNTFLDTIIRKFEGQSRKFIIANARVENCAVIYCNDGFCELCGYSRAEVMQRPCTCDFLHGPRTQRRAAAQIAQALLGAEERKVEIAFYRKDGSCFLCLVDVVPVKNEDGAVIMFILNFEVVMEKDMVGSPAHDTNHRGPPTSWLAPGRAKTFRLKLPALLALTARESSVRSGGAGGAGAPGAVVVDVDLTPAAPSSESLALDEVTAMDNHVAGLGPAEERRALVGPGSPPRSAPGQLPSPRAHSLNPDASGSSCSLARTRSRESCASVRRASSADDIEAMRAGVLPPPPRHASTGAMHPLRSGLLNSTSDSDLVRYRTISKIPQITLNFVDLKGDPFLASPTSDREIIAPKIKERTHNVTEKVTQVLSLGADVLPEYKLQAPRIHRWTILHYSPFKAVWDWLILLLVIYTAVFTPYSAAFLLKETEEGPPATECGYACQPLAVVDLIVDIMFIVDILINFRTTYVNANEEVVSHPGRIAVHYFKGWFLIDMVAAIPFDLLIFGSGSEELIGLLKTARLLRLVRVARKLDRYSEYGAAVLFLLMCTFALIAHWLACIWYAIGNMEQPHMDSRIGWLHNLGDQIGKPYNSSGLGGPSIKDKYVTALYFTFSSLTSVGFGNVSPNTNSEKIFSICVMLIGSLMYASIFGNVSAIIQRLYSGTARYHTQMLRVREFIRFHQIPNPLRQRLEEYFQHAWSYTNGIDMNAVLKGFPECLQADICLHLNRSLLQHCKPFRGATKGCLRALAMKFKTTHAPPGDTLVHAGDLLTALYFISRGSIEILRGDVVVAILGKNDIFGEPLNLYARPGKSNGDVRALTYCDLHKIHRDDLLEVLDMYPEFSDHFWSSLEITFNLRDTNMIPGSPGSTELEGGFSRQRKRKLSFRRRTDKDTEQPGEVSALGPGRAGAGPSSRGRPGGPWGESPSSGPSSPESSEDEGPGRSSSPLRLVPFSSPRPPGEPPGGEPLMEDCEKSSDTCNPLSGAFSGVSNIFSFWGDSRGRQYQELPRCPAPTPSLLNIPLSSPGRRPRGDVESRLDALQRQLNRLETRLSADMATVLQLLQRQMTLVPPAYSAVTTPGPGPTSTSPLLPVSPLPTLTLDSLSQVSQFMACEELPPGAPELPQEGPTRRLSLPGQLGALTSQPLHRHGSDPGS

Row | Compound | hERG current change (%, negative = inhibition) at 10uM
1 | COc1ccc(-c2sc3ccccc3c2C#CCO)cc1 | 16.8%
2 | CCCc1cc(=O)[nH]c(SCc2cc(C(=O)OC)c(C)o2)n1 | 8.44%
3 | COc1ccc(S(=O)(=O)N(C)c2ccc(C(=O)N3CCOCC3)cc2)cc1OC | -0.919%
4 | O=C(CN1CCN(Cc2ccc(Cl)cc2)CC1)N/N=C/c1ccccc1F | -68.7%
5 | Cc1ccc(OCC(=O)N(c2ccccn2)C2CCCCC2)c(C)c1 | -5.83%
6 | CCOc1cc(/C=C2\N=C(C)OC2=O)cc(Cl)c1OCC(=O)OC | -0.823%
7 | Cc1cccc2sc(NC(=O)CCNS(=O)(=O)c3cccs3)nc12 | -18.8%
8 | CC(C)NC(=O)CSc1nccc(-c2cccs2)n1 | 8.75%
9 | Cc1cccc(OCC(=O)N(C)c2c(N)n(Cc3ccccc3)c(=O)[nH]c2=O)c1C | 14.2%
10 | COc1ccc(C(C)=O)cc1CN1CCCCC1.Cl | 8.02%
11 | COc1ccc(-c2cnnn2-c2ccc(NC(=O)c3ccc(S(=O)(=O)N4CCCCC4)cc3)cc2)cc1 | 0.975%
12 | Cc1ccc(C)c(N2CCN(S(=O)(=O)c3cc4c(cc3Cl)NC(=O)CO4)CC2)c1 | 13.3%
13 | CCOc1ccc(C(C)NC(=O)c2ccccc2OCc2c(C)noc2C)cc1OCC (stereo not shown) | -23.8%
14 | CCOc1ccc(NC2=NC(C(=O)NCc3ccccc3)CC(=O)N2)cc1 (stereo not shown) | 1.86%
15 | CCc1nnc(NC(=O)CSc2nc(-c3ccc(OC)cc3)ns2)s1 | 11.3%
16 | CCOC(=O)c1ccccc1NC(=O)c1ccc(F)cc1 | 21.3%
17 | CC(C)(C)NC(=O)N1CCCN(c2ccc(C(F)(F)F)cn2)CC1 | -0.47%
18 | Cc1[nH]c2ccccc2c1NC(=O)CN1CCN(c2cccc(C(F)(F)F)c2)CC1 | -6.64%
19 | CCc1ccc(NC(=O)NC2CCCCCCC2)cc1 | 9.86%
20 | COc1cccc(Cn2c(Oc3cccc(C)c3)nc3c2c(=O)n(C)c(=O)n3C)c1 | -9.7%
21 | Cc1ccc2occ(/C=N/O)c(=O)c2c1 | 12.7%
22 | Cc1[nH]c2ccccc2c1C(=O)CN1C(=O)C(=O)N(Cc2ccco2)C1=O | -5.26%

Row | Compound | hERG current change (%, negative = inhibition) at 10uM
23 | O=C(N/N=C/c1ccco1)c1cc(-c2ccc(Cl)s2)[nH]n1 | 2.96%
24 | O=C(N/N=C/c1cccnc1)c1cc(-c2ccccc2Cl)nc2ccccc12 | -40.6%
25 | CCCCC[C@H](O)/C=C/[C@@H]1[C@@H](C/C=C\CCCC(=O)O)[C@@H](O)C[C@H]1O.NC(CO)(CO)CO | 9.22%
26 | CC(C)(C)OC(=O)NN1CC(=O)N2[C@@H](Cc3c([nH]c4ccccc34)C2(C)C)C1=O | 27.7%
27 | Cc1c(Br)cc(-c2nnco2)cc1Br | 11.8%
28 | O=C(Nc1nc(-c2ccccn2)cs1)c1ccc([N+](=O)[O-])o1 | -1.32%
29 | O=S(=O)(c1cc(F)ccc1F)N1CCN2CCCC2C1 (stereo not shown) | 17.7%
30 | CC(=O)Nc1nonc1NC(C)=O | 15.7%
31 | COc1ccc(-n2c(O)c(C=Nc3ccccc3)c3ccccc3c2=O)cc1OC | 14.2%
32 | CCN(CC)S(=O)(=O)c1ccc(/C=C/C(=O)OCC(=O)Nc2ccc(C(N)=O)cc2)cc1 | 18.9%
33 | COc1ccc(Br)cc1CN1CCN(C(=O)c2cccc(F)c2)CC1.O=C(O)C(=O)O | -39.2%
34 | COc1ccccc1C(=O)N1c2ccccc2Sc2ccccc21 | -6.03%
35 | CC(=O)NC(NC(C)=O)c1ccc(Br)cc1 | -4.97%
36 | CCCCNC(=O)CN(c1cccc(F)c1)S(C)(=O)=O | -3.26%
37 | c1ccc(-n2cnc3ccccc32)cc1 | -4.05%
38 | Cc1ccnc(NC(=O)COC(=O)C23CC4CC(CC(C4)C2)C3)n1 | 9.94%
39 | COc1ccc(Cc2nn3c(Cn4nnc5ccccc54)nnc3s2)cc1 | -17.2%
40 | O=C(Nc1c2c(nn1-c1ccccc1)CS(=O)(=O)C2)c1ccccc1Br | -0.51%
41 | Cc1cc(C(=O)COC(=O)CN=C2NS(=O)(=O)c3ccccc32)c(C)n1CCc1ccc(Cl)cc1 | 11.8%
42 | Cc1cccc(C(=O)Nc2cccc(C(=O)N/N=C/c3ccncc3)c2)c1 | -2.07%
43 | Clc1ccccc1C1CC(c2ccccc2)=Nc2ccccc2N1 (stereo not shown) | 4.58%
44 | CCC(=O)/C=C1\Sc2ccc(OC)cc2N1CCO | -0.298%

Row | Compound | hERG current change (%, negative = inhibition) at 10uM
45 | CSc1ncc(C(=O)Nc2cccnc2)c(C(F)(F)F)n1 | 7.5%
46 | O=C(c1ccc(S(=O)(=O)N2CCCC2)cc1)N(c1ccc(F)cc1)C1C=CS(=O)(=O)C1 (stereo not shown) | -39.8%
47 | O=c1c(-c2nnc(SCc3ccc(Cl)cc3)o2)cccn1Cc1ccccc1 | -46.2%
48 | CCCn1nnc(NC(=O)c2cccc(OCc3ccccc3)c2)n1 | 11.9%
49 | CCCCNC(=O)C(=O)N/N=C/c1ccc(OCC(=O)Nc2cccc(OC)c2)c(OC)c1 | -11.4%
50 | O=C(NCc1ccccc1)c1nc[nH]c1C(=O)N1CCc2ccccc2C1 | 0.997%
51 | CC1CCCCN1S(=O)(=O)c1ccc(NC(=O)c2cccs2)cc1 (stereo not shown) | -11.3%
52 | O=c1[nH]c([S-])nc2sc3c(c12)CCCC3.[K+] | 3.14%
53 | CCOc1cccc(C(=O)NCc2ccccc2)c1 | 15.4%
54 | O=C(Nc1cccn(Cc2c(Cl)cccc2Cl)c1=O)C1CC1 | 15.8%
55 | COC(=O)C1C(=O)C2=C(CC1C)NC(C)=C(C(=O)OC(C)C)C2c1ccc(C)o1 (stereo not shown) | -2.46%
56 | O=C(CNC(=O)Cc1ccccc1)NCC(=O)OCC(=O)c1cccc2ccccc12 | -28%
57 | CNC1=C([N+](=O)[O-])CC([N+](=O)[O-])=C(N2CCNCC2)N1C | 8.57%
58 | O=C(Nc1c(C(=O)N2CCC(N3CCCCC3)CC2)oc2ccccc12)c1c(F)cccc1F | -51.7%
59 | Cc1nn(Cc2ccc(C(=O)N3CCOCC3)o2)c(C)c1Br | 9.37%
60 | CC(OC(=O)c1cc2sccc2n1C)C(=O)NCC1CCCO1 (stereo not shown) | 0.798%
61 | COc1ccc(S(=O)(=O)NCC(=O)NCc2cc(=O)n(C)c(=O)n2C)cc1C | 5.78%
62 | O=C(NC1(C(F)(F)F)NC(=O)N(Cc2ccccc2)C1=O)c1cccnc1 (stereo not shown) | 10.4%
63 | Cc1ccc(C(=O)N2CCCC(N(C)Cc3ccccc3)C2)s1 (stereo not shown) | -36.8%
64 | O=S(=O)(c1ccc2c(c1)OCCO2)N1CCC(c2nc3ccccc3s2)CC1 | 4.67%
65 | Nc1nc(-c2ccccc2)[nH]c(=O)c1N | 6.04%
66 | COc1cccc(-c2nnc3sc(C4CCCCC4)nn23)c1 | -45.2%

Row | Compound | hERG current change (%, negative = inhibition) at 10uM
67 | Cc1ccc(S(=O)(=O)N=Nc2c(O)[nH]c3ccccc23)cc1C | 15.3%
68 | COc1ccc(C2SCCN2C(=S)Nc2ccc(Cl)cc2)cc1 (stereo not shown) | -3.49%
69 | CC(=O)O.Fc1ccc(NC(=S)Nc2cccnc2)cc1 | -1.99%
70 | Cc1ccc(C2=N/C(=C\N(C)C)C(=O)O2)cc1 | -0.834%
71 | CSc1nnc(C)c(=O)n1COC(=O)/C=C/c1ccc2c(c1)OCO2 | -24.3%
72 | Clc1ccc2c(NCc3ccccc3)ccnc2c1 | -45.5%
73 | CCOC(=O)CSc1nnc(CNC(=O)c2cccs2)n1-c1cc(C)ccc1C | -5.19%
74 | COc1ccc(NC(=O)CSc2nnc(Cc3ccc(C)cc3)c(=O)n2N)cc1OC | 1.64%
75 | NS(=O)(=O)c1ccc(N=Nc2c[nH]c(=O)c(O)c2)cc1 | -6.37%
76 | CCOc1ccc(N(CC(=O)NC2CCC(C)CC2)S(=O)(=O)c2c(C)noc2C)cc1 (stereo not shown) | 14.4%
77 | COCCNC(=O)C12CC3CC(CC(Cl)(C3)C1)C2 | 19.2%
78 | O=S(=O)(/N=C(\[O-])C[n+]1ccccc1)c1ccc(Cl)cc1 | 13.5%
79 | O=C(CN1CCC(c2nc3ccccc3[nH]2)CC1)NCc1ccc2c(c1)OCO2 | -84.3%
80 | O=C(O)c1ccc(NC(=O)c2cc3ccccc3o2)cc1 | 15.9%
81 | C=CCN1C(=O)C(O)(CC(=O)c2ccc(N)cc2)c2ccccc21 (stereo not shown) | 11.8%
82 | Clc1cccc(C[n+]2cc(-c3ccccc3)n3c2CCC3)c1.[Br-] | -25.7%
83 | O=C(CC1S/C(=N/N=C/c2c[nH]c3ccc(OCc4ccccc4)cc23)NC1=O)Nc1ccccc1 (stereo not shown) | -0.703%
84 | Cc1noc(NC(=O)c2ccc(Cl)cc2)c1Cl | 24.6%
85 | Cc1ccc(C(=O)c2c3ccc(N)cc3nn2CCC(N)=O)cc1 | 13.9%
86 | Cc1ccnc2nc(C(=O)OCC(=O)NCCc3ccccc3)nn12 | 16.6%
87 | O=C(CN1CCCC1)Nc1nnc(-c2cccs2)s1 | -5.47%
88 | CNC(=O)C(=O)NCC1OCCCN1S(=O)(=O)c1ccc2c(c1)OCCO2 (stereo not shown) | -7.36%
